Results: the supplement of paper PMC4967469
IC50 is the fitted dose that halves viability relative to control wells, and lower means more sensitive; a fit beyond the top or the lowest dose is shown as a bound at that dose. For AUC the same curve is integrated over the 256-fold range of doses and scaled to a fraction; the more sensitive the line, the further below 1. For part of these data: The top dose, if marked as inferred, comes from the curve model; the source does not state it. For part of these data: Drugs with an entry number were screened twice under separate entries, and the two screens often disagree.

Assays:
Assay in all cases: Viability of human cancer cell lines after 72 h of drug (GDSC screen)
SNX-2112 = compound: CC1(C)CC(=O)c2c(C(F)(F)F)nn(-c3ccc(C(N)=O)c(N[C@H]4CC[C@H](O)CC4)c3)c2C1 [SNX-2112]; conditions: top dose 2.56 µM
Description: (§1)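 Human cancer cell lines in 384-well plates, medium with 10% serum, drug for 72 h over a 256-fold dose range (nine 2-fold or five 4-fold steps up to the top dose). Adherent lines were fixed and stained with the nucleic acid dye Syto60, suspension lines read with resazurin; signal relative to control wells, capped at 0 and 100%. One two-parameter sigmoid per drug and line, fitted in a mixed model over all curves with the slope shared within a line.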

Vinblastine = compound: CC[C@]1(O)C[C@@H]2CN(CCc3c([nH]c4ccccc34)[C@@](C(=O)OC)(c3cc4c(cc3OC)N(C)[C@H]3[C@@](O)(C(=O)OC)[C@H](OC(C)=O)[C@]5(CC)C=CCN6CC[C@]43[C@@H]65)C2)C1 [Vinblastine]; conditions: top dose 0.1 µM; top dose inferred
Description: as §1

Afatinib = compound: CN(C)C/C=C/C(=O)Nc1cc2c(Nc3ccc(F)c(Cl)c3)ncnc2cc1O[C@H]1CCOC1 [Afatinib]
Description: as §1

PF-562271 = compound: CN(c1ncccc1CNc1nc(Nc2ccc3c(c2)CC(=O)N3)ncc1C(F)(F)F)S(C)(=O)=O [PF-562271]; conditions: top dose 2.56 µM; top dose inferred
Description: as §1

XMD13-2 = compound: O=C(NC1CC1)c1cccc(-c2ccc3c(NC(=O)C4CC4)n[nH]c3c2)c1 [XMD13-2]; conditions: top dose 10.24 µM; top dose inferred
Description: as §1

[1] = top dose 0.5 µM, screen: GDSC drug entry 1032
[2] = top dose 10 µM, screen: GDSC drug entry 1377, top dose inferred

Cell Line	AUC (SNX-2112)	IC50 (SNX-2112)	AUC (Vinblastine)	IC50 (Vinblastine)	AUC (Afatinib; [1])	IC50 (Afatinib; [1])	AUC (Afatinib; [2])	IC50 (Afatinib; [2])	AUC (PF-562271)	IC50 (PF-562271)	AUC (XMD13-2)	IC50 (XMD13-2)
YKG-1 (glioma, adherent)	0.633	376 nM	0.514	6.85 nM	0.916	> 0.5 µM	0.98	> 10 µM	0.931	> 2560 nM	0.89	> 10.2 µM
YT (lymphoid neoplasm, suspension)	0.2	25 nM	0.965	> 100 nM	0.97	> 0.5 µM	0.991	> 10 µM	0.96	> 2560 nM	0.86	6.59 µM
no-10 (glioma, adherent)	0.935	> 2560 nM	0.874	> 100 nM	0.964	> 0.5 µM	0.94	> 10 µM	0.811	1760 nM	0.958	> 10.2 µM
no-11 (glioma, adherent)	0.528	195 nM	0.701	26.8 nM	0.931	> 0.5 µM	0.974	> 10 µM	0.959	> 2560 nM	0.935	> 10.2 µM
